Reference: PubChem BioAssay AID588591 (National Center for Advancing Translational Sciences (NCATS), 2011)
In all, about 390,000 compounds went through this assay and about 4,700 (1.2%) were called active. The shares of active, inactive and inconclusive entries below differ from those in the screen. The call rests on the fitted dose curve; in most records, active means well fitted inhibition curve with a large enough effect; inconclusive means small, poorly fitted or top-dose-only effect, or another doubt; inactive means no such curve, though single readings can be large or run the other way. Potencies of inconclusive entries are doubtful fits and often do not repeat.

Molecular target: DNA polymerase eta (Homo sapiens) (UniProt Q9Y253)
Chain of UniProt Q9Y253 (Q9Y253 whole entry, looked up): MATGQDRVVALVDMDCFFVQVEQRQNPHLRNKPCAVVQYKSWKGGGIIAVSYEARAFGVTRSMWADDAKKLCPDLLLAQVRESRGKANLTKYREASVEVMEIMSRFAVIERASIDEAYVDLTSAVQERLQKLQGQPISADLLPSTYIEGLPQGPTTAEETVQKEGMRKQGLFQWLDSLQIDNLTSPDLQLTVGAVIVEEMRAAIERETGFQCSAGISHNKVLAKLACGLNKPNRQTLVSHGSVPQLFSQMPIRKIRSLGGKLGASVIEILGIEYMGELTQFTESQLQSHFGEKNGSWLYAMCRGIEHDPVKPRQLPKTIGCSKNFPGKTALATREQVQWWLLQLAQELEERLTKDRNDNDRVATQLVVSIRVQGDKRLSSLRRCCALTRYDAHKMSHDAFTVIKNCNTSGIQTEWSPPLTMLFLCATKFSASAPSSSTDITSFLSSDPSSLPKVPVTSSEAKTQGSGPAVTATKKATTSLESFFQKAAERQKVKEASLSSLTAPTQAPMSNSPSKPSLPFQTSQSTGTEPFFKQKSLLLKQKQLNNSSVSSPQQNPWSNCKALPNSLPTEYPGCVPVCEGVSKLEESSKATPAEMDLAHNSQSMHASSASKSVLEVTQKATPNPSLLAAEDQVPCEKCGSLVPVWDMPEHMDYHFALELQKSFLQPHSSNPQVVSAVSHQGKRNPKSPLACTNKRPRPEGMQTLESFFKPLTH
Test: qHTS for Inhibitors of Polymerase Eta
Details: recombinant Pol eta, fluorescent DNA replication assay; series mostly up to 114 µM; activity change, negative = inhibition: at the top concentration
How it was run: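 Pol eta (10 nM) was preincubated with compounds for 15 min at room temperature, after which fluorescent replication substrate (50 nM final) was added to start the reaction. Fluorescence was read kinetically at 0 and 10 min.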
On the % scale 0 is the no-effect control and ±100 the full control effect; potency means the concentration at half of the fitted maximal effect; tags describe the fitted curve by direction and shape.

SMILES	Potency	activity change, negative = inhibition
COC(=O)N/N=C/c1cc(OC)c(O)c([N+](=O)[O-])c1	inconclusive: 28.2 µM [inhibitor, partial curve]	
COc1cc(NC(=O)CSc2nnc3c(n2)[nH]c2ccc(S(=O)(=O)NC(C)C)cc23)cc(OC)c1OC	active: 17.8 µM	
O=[N+]([O-])c1ccccc1/C=C/C=N/n1c(-c2cc(-c3ccccc3)n[nH]2)n[nH]c1=S	active: 31.6 µM	
CCOc1ccc(/C=C/C(=O)c2cc(Br)ccc(=O)c2O)cc1	inconclusive: 12.6 µM [inhibitor, full curve, poor fit]	
CC(=O)c1cccc(NC(=O)Cn2c(=O)oc3cc(S(=O)(=O)NCc4ccccc4)ccc32)c1		inactive: -9.78%
Cc1ccc(CNC(=O)c2nnn(Cc3ccc(F)cc3)c2N)cc1	inconclusive: 89.1 µM [inhibitor, single point]	
COc1ccccc1C1NC(=O)CCC1[N+](=O)[O-] (stereo not drawn)	inconclusive: 39.8 µM [inhibitor, partial curve, poor fit]	
COc1ccc(C2c3c(n(C)c4ccccc34)C(=O)N2CC(=O)Nc2ccccc2Cl)cc1 (stereo not drawn)		inactive: -7.75%
O=C1CC(=O)N(Cc2ccco2)C(=O)N1	active: 3.55 µM	
Cc1nnc(Sc2cc(NCCO)c([N+](=O)[O-])c3nonc23)s1	inconclusive: 56.2 µM [inhibitor, partial curve]	
Cc1ccc2cc(/C=N/Nc3ccc(C(=O)O)cc3)c(Cl)nc2c1	active: 50.1 µM	
Cc1cccc(NC(=O)CSCC(=O)Nc2ccccc2N2CCCCC2)c1	inconclusive: 56.2 µM [inhibitor, partial curve, poor fit]	
CCOc1ccc(N=C2NC(=O)S/C2=C\c2ccc(Cl)cc2)cc1	inconclusive: 3.16 µM [inhibitor, full curve]	
CN(C)CCCN(C(=O)c1ccc(C(=O)c2ccccc2)cc1)c1nc2ccc(F)cc2s1	inconclusive: 89.1 µM [inhibitor, partial curve, poor fit]	
O=C1/C(=C\c2ccc(Br)o2)Cc2ccccc21	inconclusive: 35.5 µM [inhibitor, partial curve, poor fit]	
C=CCn1c(SCC(=O)NC2CCCC2)nc2scc(-c3ccco3)c2c1=O	active: 15.8 µM	
O=C(O)COc1ccccc1/C=N/NC(=O)/C(=C\c1ccc2c(c1)OCO2)NC(=O)c1ccccc1	inconclusive: 56.2 µM [inhibitor, partial curve, poor fit]	
CCCCc1nn2c(=O)cc(COC(=O)c3ccco3)nc2s1		inactive: 1.17%
CCOC(=O)c1c(C)c(C(=O)NCc2ccco2)c(C)n1Cc1ccccc1	inconclusive: 89.1 µM [inhibitor, single point]	
CCCCCn1c(N)c(-c2nc3ccccc3o2)c2c([N+](=O)[O-])nn(C)c(=O)c21	inconclusive: 5.01 µM [inhibitor, full curve, poor fit]	
Clc1ccc(N=NN2CCOCC2)cc1	inconclusive: 100 µM [inhibitor, partial curve, poor fit]	
CSCCC(NC(=O)c1ccc(Cl)cc1Cl)C(=O)N(C)Cc1nc2ccccc2c(=O)[nH]1 (stereo not drawn)		inactive: -21%

SMILES	Potency	activity change, negative = inhibition
CCCCCCN1C[C@H](n2cc(C3CC3)nn2)[C@@H](O)C[C@@H]1c1ccc(Cl)cc1	inconclusive: 100 µM [inhibitor, partial curve, poor fit]	
CCOc1ccc(-n2c(=O)c3c(C)c(C)sc3n(CC(=O)Nc3ccc(CC)cc3)c2=O)cc1		inactive: -12.5%
O=C(C[n+]1ccccc1)N/N=C/c1ccc(Br)cc1		inactive: -1.49%
O=C(C[n+]1ccccc1)N/N=C/c1cccc(Cl)c1Cl	inconclusive: 39.8 µM [inhibitor, partial curve, poor fit]	
CC1CCn2c(nc3cc(C(=O)NCc4ccc(F)cc4)ccc32)C1 (stereo not drawn)		inactive: 1.3%
CCc1ccc(S(=O)(=O)/N=C2/C=C(Sc3ncn[nH]3)C(=O)c3ccccc32)cc1	active: 6.31 µM	
O=C(Oc1ccc2c(c1)O/C(=C\c1ccncc1)C2=O)c1cccs1	inconclusive: 100 µM [inhibitor, partial curve, poor fit]	
Cc1ccc(NC(=O)CCSc2nnc(-c3ccco3)o2)cc1		inactive: -2.26%
COc1cc(CN(C)C(=O)C2CCN(S(=O)(=O)c3cccs3)CC2)ccc1OC(F)F	inconclusive: 100 µM [inhibitor, partial curve, poor fit]	
C=CC[C@@H](CC(=O)NCCO)C(=O)NC[C@H](OC(=O)[C@@H](CC=C)Cc1ccc(F)cc1)c1ccccc1		inactive: 3.13%
Cc1ccc(-c2csc(/C(C#N)=C(\O)CCl)n2)cc1	active: 44.7 µM	
CCC(C)Sc1nc2c(c(=O)[nH]1)C(c1cccs1)C1=C(CCCC1=O)N2 (stereo not drawn)	inconclusive: 56.2 µM [inhibitor, partial curve, poor fit]	
Cc1ccc(NC(=O)CSc2nc3nc(C)cc(C)c3c(=O)[nH]2)cc1	inconclusive: 39.8 µM [inhibitor, partial curve, poor fit]	
NC(=O)NC(=O)COC(=O)c1ccc(Cl)c(S(=O)(=O)N(Cc2ccccc2)c2ccc(Cl)cc2)c1	inconclusive: 89.1 µM [inhibitor, partial curve, poor fit]	
CCOC(=O)c1nn2c(C(F)(F)F)cc(-c3ccc(C)cc3)nc2c1Cl		inactive: 1.11%
O=C(CCN1C(=O)/C(=C\C=C\c2ccccc2)SC1=S)Nc1ccc(C(=O)O)cc1	active: 28.2 µM	
[N-]=[N+]=Nc1ccc(C(=O)CSC[C@H](NC(=O)CC[C@H](N)C(=O)O)C(=O)NCC(=O)O)cc1	inconclusive: 28.2 µM [inhibitor, single point]	
O=C(NCc1ccco1)c1c2c(nc3ccccc13)CCC2	active: 3.16 µM	
Cn1ncc([N+](=O)[O-])c1C(=O)Nc1nc2ccccc2n1CCN1CCCCC1	inconclusive: 39.8 µM [inhibitor, partial curve, poor fit]	
Cc1ccc(C)c(NC(=O)CN(C)C(=O)c2cccc(-n3cccc3)c2)c1	active: 5.01 µM	
COc1ccc(-c2nn(-c3ccccc3)cc2/C=C(/C#N)C(N)=O)cc1[N+](=O)[O-]	inconclusive: 3.16 µM [inhibitor, full curve, poor fit]	
